Test results reported in the supplement of paper PMC12217912.
The list shows a part of the results. Sequences were assembled here from the parent chain. Values near 0.05 are background.

B1: TEV protease; numbered along this chain (parent)
chain: MGESLFKGPRDYNPISSSICHLTNESDGHTTSLYGIGFGPFIITNKHLFRRNNGTLVVQSLHGVFKVKDTTTLQQHLVDGRDMIIIRMPKDFPPFPQKLKFREPQREERICLVTTNFQTKSMSSMVSDTSCTFPSGDGIFWKHWIQTKDGQCGSPLVSTRDGFIVGIHSASNFTNTNNYFTSVPKNFMELLTNQEAQQWVSGWRLNADSVLWGGHKVFMVKPEEPFQPVKEATQL

Variants of: B1
Test: raw area under fraction-flipped curve 0-4 h after induction (AUC4h, not background-subtracted), DNA-recorder readout of cleavage of the substrate (dimensionless); higher = more cleavage of the substrate by the protease variant
Settings: temperature: 34 °C; time window: 0-4 h after rhamnose induction
Method: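 In vivo DNA recorder in E. coli TOP10(DE3) ΔrhaA at 34 °C. Each TEVp single-site mutant (parent TEVp 0) is paired with a single-site variant of the 7-mer TEVs (canonical ENLYFQ|S). The substrate sits between flexible linkers in a Bxb1-sfGFP-TEVs-SsrA fusion, so cleavage stabilises Bxb1 and speeds flipping of a recombination array, read by NGS. The value is the raw area under the fraction-flipped curve over 0-4 h after rhamnose induction (AUC4h), with ≥20 reads per time point. It is not background-subtracted; inactive controls average about 0.047.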
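Further: Bxb1 expression induced with 0.2% (w/v) L-rhamnose at OD600 near 0.5, cultures sampled hourly, flipped fraction per protease–substrate barcode pair counted by paired-end Illumina sequencing.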

Variant	area with substrate ENLYCQS	area with substrate ENLYDQS	area with substrate ENLYEQS	area with substrate ENLYGQS	area with substrate ENLYIQS	area with substrate ENLYKQS	area with substrate ENLYMQS	area with substrate ENLYPQS	area with substrate ENLYRQS	area with substrate ENLYSQS	area with substrate ENLYTQS	area with substrate ENLYVQS	area with substrate ENLYWQS	area with substrate ENLYHQS	area with substrate ENLYNQS	area with substrate ENLYQQS	area with substrate ENLYYQS	area with substrate ENLYLQS	area with substrate ENLYAQS
I84D	0.0448	0.0358	0.0502	0.0477	0.0591	0.014	0.0399	0.0456	0.0596	0.0506	0.0311	0.0591	0.0422	–	–	–	–	–	–
I84R	0.0793	–	0.0565	0.006	0.054	0.0387	0.0584	0.0615	–	0.052	–	0.056	–	0.0619	0.0574	0.0581	–	–	–
L99F	0.0639	0.063	–	0.068	0.0977	0.0766	0.057	–	–	–	0.0709	–	0.0557	–	–	–	0.0622	–	–
T114I	0.0803	–	0.0589	0.0699	–	0.0715	0.0909	–	–	–	0.0819	–	0.0777	0.0575	0.0561	0.0636	–	0.078	–
F101R	0.0487	–	0.0512	0.0459	0.0539	0.0423	0.0532	0.0531	0.0561	0.0513	–	0.03	0.0408	–	0.0531	–	–	–	–
F101C	0.0757	0.0607	0.0601	0.0575	–	0.0548	0.0596	–	0.0596	0.0735	0.0323	0.0745	0.0552	0.0586	0.0555	0.0601	0.0503	–	–
R102P	0.0534	0.0443	–	0.0478	–	0.0433	–	0.0465	0.047	0.0386	–	0.0397	–	0.0609	–	0.0309	0.0811	–	–
D137I	0.0886	0.0607	0.085	–	0.0912	0.112	0.0836	0.0685	–	–	0.0821	0.0971	0.0879	0.0468	–	0.0694	–	0.111	–
S123Y	0.121	0.0521	0.0843	–	0.0881	–	–	–	–	0.0657	–	0.13	–	0.0599	–	0.0637	–	–	–
S135C	0.0998	0.0584	0.0647	0.0673	0.0679	0.0616	0.0548	0.0601	–	0.058	0.0618	0.0914	0.0703	0.0388	0.057	0.0682	0.0257	–	–
G8Y	0.0767	–	–	–	–	–	–	–	–	–	–	–	–	–	–	–	–	–	–
P9I	0.0867	–	0.0653	0.0968	–	0.0243	0.121	–	0.0685	0.0654	–	0.111	0.0814	0.0688	0.0795	–	0.0568	0.105	–
P89Q	0.0797	0.0508	0.0681	0.0627	0.041	0.0664	0.0655	0.0619	0.0627	0.0583	0.0763	0.121	–	0.0692	–	0.0677	0.0626	0.0909	–
T119Y	0.0989	0.0528	0.0682	–	0.122	0.0728	0.0786	0.0672	0.0468	–	0.0645	–	–	0.0712	0.0699	0.0628	–	–	–
I43Y	0.0477	0.0486	0.0476	0.0384	–	0.0511	0.0671	0.0477	0.0373	–	–	0.0175	0.0517	0.0506	0.0493	–	0.0403	0.0526	–
K68W	0.0858	–	0.0745	–	0.0991	0.0214	0.0809	0.0721	0.0635	0.0795	0.0702	–	0.074	0.073	0.0743	0.0405	0.0751	0.0772	–
S154K	0.11	0.0922	0.0653	0.0679	–	0.0428	0.0718	–	–	–	–	0.101	0.0601	0.0661	0.0641	0.0654	–	0.0776	–
S154T	0.115	0.0656	0.0618	–	–	–	0.0843	0.0494	–	0.0712	0.0744	–	0.0655	0.0723	0.0627	0.0596	–	–	–
F6D	0.072	–	0.0675	0.0912	0.0912	0.0657	–	–	0.0615	–	0.0725	–	0.0805	0.0584	0.0679	–	0.0583	–	–
F6S	0.108	0.0659	–	0.0708	0.126	–	0.0882	–	0.0687	–	–	–	0.0871	0.0742	–	0.072	–	–	–
T70K	0.0602	0.0598	0.0355	0.0575	0.0642	–	–	0.057	–	0.0751	0.0497	0.0603	–	0.0476	–	0.0611	–	–	–
R87S	0.0647	0.0634	0.0594	0.0673	0.0827	0.0647	0.0714	0.0505	0.0456	–	–	0.0931	0.0781	0.0582	0.0716	–	–	–	–
L5W	0.0844	0.0473	0.0825	0.0647	–	0.0755	–	0.0806	0.0621	0.0746	–	0.14	0.0844	0.081	0.0665	–	–	0.0802	–
F117A	0.0822	0.0593	0.0758	–	0.113	–	–	–	–	–	–	0.114	0.0819	–	0.0701	0.059	0.0454	–	–
F117Q	0.122	0.0547	0.0729	0.0694	0.117	–	0.0571	0.0655	–	0.0825	0.0805	0.124	0.073	0.0291	–	–	–	–	–
F117S	0.0913	0.0521	–	–	0.127	0.0389	–	0.0744	0.0601	0.08	–	0.142	0.0783	0.0684	0.0599	–	0.0697	–	–
T71R	0.107	0.0505	0.0722	0.0809	0.154	–	0.076	–	–	–	–	0.119	0.0926	–	0.0601	–	–	–	–
T71Q	0.118	–	–	–	0.152	0.0516	0.101	0.0577	0.0665	–	–	–	–	0.0629	0.0695	–	–	–	–
Q234Y	0.0783	0.0672	0.0598	0.0653	0.108	0.0599	0.113	0.0772	–	0.0729	0.0602	–	0.0772	0.0571	0.079	0.0582	0.0505	–	0.0849
